# Laboratory results published in PubChem BioAssay AID624296 (National Center for Advancing Translational Sciences (NCATS), 2012).
# Screen size: about 350,000 compounds; about 9,900 (2.8%) were called active. Inconclusive results, whose numbers are uncertain, are shown with a selection of clear calls. Calls come from the whole dose curve; as a rule, active = well fitted activation curve with a large enough effect; inconclusive = small, poorly fitted or top-dose-only effect; inactive = no such curve, though single readings can be large or run the other way. Potencies of inconclusive entries are left out as doubtful fits.
# Test: A quantitative high throughput screen for small molecules that induce DNA re-replication in MCF 10a normal breast cells. For activity, positive = re-replication: % of control where 0% means no effect. Note: nearly all actives have a fitted effect of over 50% in size.
# Details: MCF 10A DNA re-replication, Hoechst nuclear intensity, 48 h; activity, positive = re-replication: at 46.1 µM (top of the series)
# Potency is the fitted concentration of half-maximal effect; tags give direction and shape of the fitted curve.
Structure (SMILES),Potency,"activity, positive = re-replication"
COc1ccccc1NC(=O)c1cc(-c2ccc(C)o2)nc2ccccc12,"inconclusive [activator, single point]",
O=C(O)C1CCCN1c1nc(-c2ccc(Cl)c(Cl)c2)cc(C(F)(F)F)n1 (centres undefined),"inconclusive [activator, single point]",
CC(C)Cn1cnc2c(SCc3ccccc3Cl)nc(N)nc21,"inconclusive [activator, partial curve]",
CCOC(=O)c1ccc(NC(=O)CNNC(=O)COc2ccccc2C)cc1,"inconclusive [activator, full curve, poor fit]",
C=CCNCCOc1ccc(C(C)(C)c2ccccc2)cc1,"inconclusive [activator, partial curve, poor fit]",
c1ccc(COc2ncnc3c2ncn3CCCNCC2CCCO2)cc1 (centres undefined),"inconclusive [activator, single point]",
COc1ccc(C(CC(=O)O)c2ccc3c(c2)OCO3)cc1 (centres undefined),,inactive: 0.123%
CCn1ccnc1CN1CCCC(C(=O)c2ccc3c4c(cccc24)CC3)C1 (centres undefined),"inconclusive [activator, single point]",
Cc1cccc(N2CCN(C(=O)COc3cc(=O)n(C)c4ccccc34)CC2)c1C,"inconclusive [activator, partial curve, poor fit]",
O=C(O)c1ccc(N2CCCCCC2)c(N2C(=O)c3ccccc3C2=O)c1,,inactive: -5.58%
O=S(=O)(N(Cc1ccccc1)[C@H](CO)Cc1ccccc1)N(Cc1ccccc1)[C@H](CO)Cc1ccccc1,active: 23.1 µM,
CN(c1ccc(F)cc1)S(=O)(=O)c1ccc(Cl)c(C(=O)Nc2ccc3c(c2)CCC3)c1,"inconclusive [activator, partial curve]",
COc1ccc(NS(=O)(=O)c2cc(Br)cc3c2N(C(C)=O)CC3)cc1,active: 18.4 µM,
CCN(CC(=O)Nc1ccc(OC)cc1)C(=O)CSCc1c(C)noc1C,,inactive: 11.1%
O=S(=O)(c1ccccc1)c1cc(O)ccc1O,"inconclusive [activator, single point]",
COc1ccc(OC)c(Nc2nc(N)c([N+](=O)[O-])c(N3CCOCC3)n2)c1,"inconclusive [activator, single point]",
CS(=O)(=O)CCC(C(=O)Nc1ccc2c(c1)OCO2)N1Cc2ccccc2C1=O (centres undefined),,inactive: -0.632%
Cc1ccc(C)c(C(=O)Nc2ccncc2)c1,"inconclusive [activator, single point]",
CC(=O)N1c2ccc(S(=O)(=O)NCCC(=O)NCc3ccc(Cl)cc3)cc2CC1C (centres undefined),,inactive: 7.78%
CN(c1ncc(C(F)(F)F)cc1Cl)n1cc(C(=O)O)c2ccccc2c1=O,"inconclusive [activator, single point]",
COC(=O)Cn1ncc2c(C)n(Cc3ccccc3)c(C)c2c1=O,,inactive: -0.639%
CC(=O)c1nn(-c2ccccc2)cc1C(=O)c1ccc(Br)cc1,"inconclusive [activator, partial curve, poor fit]",

Structure (SMILES),Potency,"activity, positive = re-replication"
CCOc1ccccc1Nc1nnc(SCc2nnc(-c3cc(OC)c(OC)c(OC)c3)o2)s1,"inconclusive [activator, partial curve]",
O=C(CCCN1C(=O)/C(=C/c2ccccc2Cl)SC1=S)NNC(=O)c1ccccc1Cl,"inconclusive [activator, partial curve, poor fit]",
COc1ccc(/C=C/C(=O)c2ccccc2)cc1Cn1nnc2ccccc21,active: 11.6 µM,
Cc1ccc(CNC(=O)C(=O)NCCC2CCCCN2S(=O)(=O)c2ccc(C)cc2)cc1 (centres undefined),"inconclusive [activator, single point]",
CC1CCN(S(=O)(=O)c2ccc(C(=O)Nc3sccc3C(N)=O)cc2)CC1,"inconclusive [activator, single point]",
COc1ccc(-c2cc(=O)oc3cc4occ(C)c4cc23)cc1,"inconclusive [activator, single point]",
O=C1CC(Sc2cccs2)C(=O)N1c1ccccc1 (centres undefined),,inactive: 10.2%
O=[N+]([O-])c1cccnc1NCCc1ccccc1,,inactive: -2.59%
CCCC(=O)Nc1cc(OC)c(OC)cc1C(=O)O,"inconclusive [activator, single point]",
CC(O)CSc1nc2c(c(=O)n(C)c(=O)n2C)n1CCCc1ccccc1 (centres undefined),,inactive: 0.747%
Cc1nn(C(C)(C)C)c(OC(=O)c2cccs2)c1S(=O)(=O)c1ccccc1,"inconclusive [activator, single point]",
COc1ccc(NC(=O)c2ccc(Oc3ncccn3)cc2)cc1,"inconclusive [activator, single point]",
CS(=O)(=O)N(CC(=O)Nc1cccc([N+](=O)[O-])c1)c1cccc(F)c1,"inconclusive [activator, partial curve, poor fit]",
CCOc1ccccc1NC(=O)c1ccc2[nH]c(C)c(C)c2c1,"inconclusive [activator, single point]",
C=C1c2ccccc2NC(=S)N1Cc1ccc2c(c1)OCO2,,inactive: -3.92%
N#C/C(=C(/O)c1ccc(Cl)c([N+](=O)[O-])c1)c1nc2ccccc2[nH]1,,inactive: -8.22%
Oc1ccccc1NCC(O)Cn1ccc2ccccc21 (centres undefined),"inconclusive [activator, single point]",
O=C(Nc1ccc(F)cc1)c1cc(-c2ccccn2)nc2c(Cl)cccc12,"inconclusive [activator, single point]",
O=C(c1ccco1)N1CCN(C2c3ccccc3-c3ccccc32)CC1,"inconclusive [activator, single point]",
O=C(NC1CCCCC1)C(c1ccccc1)N(C(=O)c1cccs1)c1ccc2c(c1)OCO2 (centres undefined),,inactive: -5.87%
O=C(COC(=O)c1ccc(F)cc1F)NC(=O)Nc1ccc2c(c1)OCCO2,,inactive: 5.78%
CN(C)C(/C=C/Nc1ccc(C#N)cc1)=C(C#N)C#N,"inconclusive [activator, full curve, poor fit]",
